Data from publication PMC12040169 (PLOS Biology, 2025).
The other results are listed elsewhere or left out.

Tested on: T1, C. trachomatis L2/434/Bu expressing GFP (CTL2-GFP)
T1 construct: L2/434/Bu GFP intracellular growth in HeLa cells
Design: species or system HeLa; C. trachomatis total inclusion area by high-content imaging, normalised to DMSO
Details: total inclusion area; 28.5 h, 10 µM; inhibitor
In short: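 After bulk GFP and resorufin fluorescence reads, cells were fixed, stained with Hoechst and imaged by high-content microscopy. Inclusion area and number (GFP) stood in for chlamydial growth, nuclei count (Hoechst) for host cell viability. MICs were derived as for the bulk readout.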

Row | Structure (SMILES) | % of control remaining
1 | CCNC(=O)C1(Cc2ccc(-c3cccs3)cc2)CCN(C(=O)Cc2ccccc2)CC1 [CBK285795] | 85.0969
2 | CC(=O)N1CCc2sccc2C1c1ccc(NC(=O)c2ccco2)cc1 (centres unmarked) [CBK286199] | 107.854
3 | O=C(Nc1ccc(N2CCNCC2)nc1)C1CCCO1 (centres unmarked) [CBK004748T] | 112.307
4 | CC(C)(CN)CN(Cc1ccccc1C(F)(F)F)C(=O)Nc1ccc(C(C)(C)C)cc1 [CBK026828C] | 57.213
5 | CN1CCN(S(=O)(=O)c2cccc(C(F)(F)F)c2)CC1 [CBK062425] | 108.347
6 | O=S(=O)(c1ccc(C2=CSC3=NCCN23)cc1)N1CCOCC1 [CBK019381] | 100.337
7 | COc1cccc(C(CNS(=O)(=O)c2ccc3c(c2)OCCCO3)N(C)C)c1 (centres unmarked) [CBK298270] | 69.965
8 | O=C(Cc1ccc(Cl)c(Cl)c1)NC(c1ccccc1)c1ccccn1 (centres unmarked) [CBK144110] | 90.8627
9 | COC(=O)Cn1c(-c2ccc(F)cc2)cc2cccnc21 [CBK282763] | 104.378
10 | O=C(NC(Nc1cccc(C(F)(F)F)c1)C(=O)c1ccccc1)c1ccc(Cl)cc1 (centres unmarked) [CBK263585] | 95.2019
11 | Cc1csc(NC(=O)Cc2ccccc2F)n1 [CBK288252] | 84.9218
12 | C=CCN(c1ccc(C(=O)O)cc1)S(=O)(=O)c1ccc(/C=C/C(=O)O)cc1 [CBK263364] | 103.749
13 | CC(C(=O)NC1(C#N)CCCCC1)N1CCOC(c2nccs2)C1 (centres unmarked) [CBK305299] | 68.0738
14 | OCc1ccccc1-c1nccnc1NCc1ccc2c(c1)OCO2 [CBK038046] | 30.2081
15 | Cc1nc(-c2ccccc2)c(CC(=O)N(C)CCN(C)C)s1 [CBK282725] | 95.5454
16 | O=C1NCC2(CCCN(C(=O)c3cccs3)C2)Oc2ccccc21 (centres unmarked) [CBK284900] | 91.1487
17 | CCOC(=O)c1sc(-c2c(Cl)cc(C(F)(F)F)cc2Cl)nc1O [CBK078547] | 86.0916
18 | Cc1cnc(CNC(=O)N2CCN(C3CCN(C)CC3)CC2)cn1 [CBK155886] | 128.936
19 | Cn1c(N2CC[C@H](O)C2)nc2cc(C(=O)NCCc3cscn3)ccc21 [CBK306824] | 57.3471
20 | O=C(O)CN1C(=O)/C(=C\c2ccc(Oc3ccc(C(F)(F)F)cc3[N+](=O)[O-])cc2)SC1=S [CBK264809] | 115.239
21 | O=C(CN1CCC2(CC1)CN(C(=O)CO)c1ccccc12)c1ccsc1 [CBK144605T] | 79.9136
22 | CS(=O)(=O)c1ccc2ncnc(NCC(CO)Cc3ccccn3)c2c1 (centres unmarked) [CBK306493] | 57.8461
23 | C=CCN(CC=C)Cc1c(C)nc2ccc(CC)cc2c1O [CBK264998] | 111.307
24 | O=C(Nc1ccc(S(=O)(=O)Nc2ncccn2)cc1)c1ccc2c(c1)OCCO2 [CBK268132] | 39.6017
25 | Clc1ccc(OCc2ccccc2)c(CNCc2ccccn2)c1 [CBK269850C] | 49.9177
26 | CSc1cc(CC(C)(C)C)c2cccc(F)c2n1 [CBK018791] | 9.069
27 | O=C(Nc1cnccn1)c1ccc(Cl)cc1Cl [CBK056922] | 20.8537

Row | Structure (SMILES) | % of control remaining
28 | O=C1N=C(NC2CCCCCC2)SC1CCNC(=O)N1CCOCC1 (centres unmarked) [CBK067687] | 66.6151
29 | Cc1noc(C)c1CC(=O)NC(C)c1cc2cc(Cl)ccc2o1 (centres unmarked) [CBK281445] | 105.144
30 | COc1cc(Nc2nc(-c3cccc(C(=O)NCCN(C)C)c3)cn3ccnc23)cc(OC)c1OC [CBK066250] | 108.797
31 | COCCn1c(Cc2ccccc2)nnc1SCc1ccc2ccccc2c1 [CBK265985] | 136.787
32 | Cc1cc2ncc3c(n2n1)CC1CCC3N1C(=O)CCc1ccco1 (centres unmarked) [CBK284380] | 89.219
33 | NC(=O)c1cccc(CNC2CCCN(c3cccnn3)C2)c1 (centres unmarked) [CBK305115] | 56.022
34 | COc1ccc(-n2nc([N+](=O)[O-])c(NCc3ccccn3)[n+]2[O-])cc1 [CBK268430] | 90.5868
35 | COc1ccnc(N2CCN(C(=O)c3c4c(nn3C)CCCC4)CC2)n1 [CBK304609] | 67.7575
36 | CCC(C)c1csc(C2CN3CCCC3CO2)n1 (centres unmarked) [CBK304805] | 81.6471
37 | CS(=O)(=O)Nc1ccccc1C(=O)NCCCN1CCOCC1 [CBK269745] | 113.699
38 | O=c1c(Cc2ccccc2)c(O)c2ccccc2n1Cc1ccccc1 [CBK219368] | 105.309
39 | Cc1cc(C)n2nc(C(=O)N3CCC(C)CC3c3ccco3)nc2n1 (centres unmarked) [CBK305196] | 27.8149
40 | Cc1nn(C)c(C)c1CNC(=O)N1CCN(CC(F)F)CC1 [CBK304249] | 44.7154
41 | O=C(O)CSc1nc2ccc([N+](=O)[O-])cc2[nH]1 [CBK265192] | 98.5818
42 | NC(=O)CN1CCC(Oc2cncc(OCc3cccnc3)n2)C1 (centres unmarked) [CBK084459] | 94.2618
43 | CC1CCN(CC(C)(C)n2cncc2-c2cnn(C)c2)CC1 [CBK281738] | 77.5304
44 | CC(=O)N1CCN(C(C(=O)O)c2cn(Cc3ccccc3)c3ccc(C(=O)O)cc23)CC1 (centres unmarked) [CBK286648] | 102.336
45 | COc1ccc(C(=O)N2C[C@@H](C)O[C@@H](C)C2)c(OC)n1 [CBK200231] | 119.157
46 | COc1ccc(CCC(=O)N2CCC(N(C)Cc3ccc(-c4ccc(S(C)(=O)=O)cc4)nc3)CC2)cc1Cl [CBK164102T] | 48.27
47 | COc1ccc(-c2ccc3ccc(NC(=O)C(C)C)nc3n2)cc1C [CBK073665] | 83.5817
48 | CC(C)[C@H](CO)n1c(=O)[nH]c2ncc(-c3cccc(CO)c3)nc21 [CBK065001] | 111.398
49 | Brc1cncc2c1ccn2CCN1CCOCC1 [CBK083479] | 50.8026
50 | COCCN1CC(CNC(=O)c2ccc(N3CCCC3)c(Cl)c2)CC1=O (centres unmarked) [CBK307680] | 65.2275
51 | CCCCC(=O)NC(c1ccccc1OC)c1cc(Cl)c2cccnc2c1O (centres unmarked) [CBK110947] | 72.7579
52 | COc1ccc(-c2cnc3[nH]c(=O)n(C4CC4)c3n2)cc1 [CBK064907] | 106.548
53 | Cc1n[nH]c(C)c1CNC(=O)c1cccc2c(C)c(C)[nH]c12 [CBK283068] | 110.72
54 | O=C(O)CCSc1nc2ccccc2n1-c1ccccc1 [CBK264215] | 110.065

Row | Structure (SMILES) | % of control remaining
55 | Cc1nc(N2CCOCC2)[nH]c(=O)c1CCC(=O)Nc1ccc(F)cc1 [CBK304990] | 64.9654
56 | Cc1cccc([C@H]2CN(C(=O)C3CCCC3)[C@@H]3CCN(C4CCCC4)C[C@H]23)c1 [CBK285529] | 80.1768
57 | COc1ccc(C(C)NC(=O)C2CCCCC2C(=O)O)cc1OC (centres unmarked) [CBK270309] | 81.449
58 | Cn1ccnc1[S+]([O-])Cc1nc2ccccc2s1 (centres unmarked) [CBK005549] | 86.1523
59 | [O-][n+]1c2c([n+]([O-])c3c1CCCC3)CCCC2 [CBK261714] | 107.093
60 | CC(=O)Nc1nc(-c2ccc(Cl)s2)cs1 [CBK287317] | 111.967
61 | c1cc(-c2nccnc2NCC2CCCCC2)ccn1 [CBK037627] | 111.73
62 | NCC1CCN(c2nc(-c3cc(C(F)(F)F)cc(C(F)(F)F)c3)cnc2N)CC1 [CBK063960] | 117.168
63 | Cc1ccc(NC(=O)c2c[nH]c(=O)[nH]c2=O)cc1 [CBK113246] | 103.225
64 | NCCNc1ccc([N+](=O)[O-])c(NCc2ccccc2)c1 [CBK262757C] | 69.143
65 | NC(=O)c1ccc(NC(=O)COc2ccc3ccccc3c2)cc1 [CBK263738] | 96.726
66 | CCn1cc(CN2C3CCC2CC(O)(c2ccc(F)cc2)C3)cn1 (centres unmarked) [CBK282741] | 98.4323
67 | O=C(NCc1cccc2ccccc12)N1CCN(Cc2ccccc2)CC1 [CBK155628] | 90.0701
68 | O=C(NC(C(=O)N/N=C/c1ccc(O)cc1)c1n[nH]c(=O)c2ccccc12)c1ccccc1 (centres unmarked) [CBK262839] | 58.1513
69 | CC(C)Cn1c(=O)[nH]c2ncc(-c3ccc(C(=O)NC4CCCC4)cc3)nc21 [CBK064551] | 122.197
70 | CCCSc1cc(=O)oc2ccccc12 [CBK017493] | 36.2716
71 | COc1cccc(C(=O)N2CC=C[C@H]2C(=O)NC2CC2)c1 [CBK284278] | 42.0043
72 | O=S(=O)(c1ccc(-c2ccc(S(=O)(=O)N3CCCCC3)cc2)cc1)N1CCCCC1 [CBK261257] | 92.1789
73 | COc1cccc(CC(=O)N2CCCC(c3cc4ncccc4[nH]3)C2)c1 (centres unmarked) [CBK283426] | 94.1275
74 | O=C1c2cc(-c3nc(-c4ccccc4)[nH]c3-c3ccccc3)ccc2-c2ccc([N+](=O)[O-])cc21 [CBK262613] | 111.105
75 | CCc1ccc(CC)c(S(=O)(=O)NC(CC(=O)O)c2ccccc2)c1 (centres unmarked) [CBK266208] | 122.002
76 | O=C(CSc1nc(=O)cc(O)[nH]1)c1ccccc1 [CBK026570] | 108.121
77 | NC(=O)c1ccc(-c2cncc(NCc3ccco3)n2)cc1 [CBK065383] | 91.6505
78 | CCOc1ccc2c(c1)CN(CCCc1nc(C)no1)CC2 [CBK305076] | 90.0521
79 | O=C(Nc1ccccc1C(=O)O)c1cc(S(=O)(=O)Nc2ccc(F)cc2)ccc1Cl [CBK263248] | 108.22
80 | O=C(NCc1ccccc1)C1CCCN(c2ncnc3[nH]cnc23)C1 (centres unmarked) [CBK287916] | 28.701
